In all, about 81,000 sequences were measured (“one-hybrid fitness for binding NBS DNA”: median about -0.1, highest 2% from about 0.36 on). The list shows a part of the results.

Consider 153 variants from a collection of fitness landscapes (doi:10.1016/j.celrep.2020.107928).

The chains are these.
B1: Caulobacter ParB omega fusion; a variant is named by its letters at X, in order, B8GW30 (parent)
chain: MESVVVGEPGMSEGRRGLGRGLSALLGEVDAAPAQAPGEQLGGSREAPIEILQRNPDQPRRTFREEDLEDLSNSIREKGVLQPILVRPSPDTAGEYQIVAGERAWRAAQRAGLKTVPIMVRELDDLAVLEIGIIENVQRADLNVLEEALSYKVLMEKFERTQENIAQTIGKSXSHVANXMRLLXLPDEVQSYLVSGELTAXHARAIAAAADPVALAKQIIEGGLSVRETEALARKAPNLSAGKSKGGRPPRVKDTDTQALESDLSSVLGLDVSIDHRGSTGTLTITYATLEQLDDLCNRLTRGI

This experiment covers variants of B1. The experiment is described as follows: one-hybrid fitness for binding NBS DNA (the Noc-binding site; scaled: cognate 1, non-cognate 0); higher = stronger binding. The settings on record: with NBS DNA site. In outline: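 Pre- and post-selection plasmids were Illumina-sequenced, three replicate libraries were pooled, and any variant with under 10 reads was removed. The libraries were Caulobacter ParB with four specificity codons randomised, selected in E. coli USO through a HIS3 reporter whose site is 19 bp from the promoter. Cells grew 48 hours at 37°C on M9 without histidine, with 0.1 mM IPTG and 5 mM 3-AT. Fitness is the log change in variant-to-wild-type read ratio, rescaled against cognate and non-cognate.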
For the variant HSSY, the “one-hybrid fitness for binding NBS DNA” value was ≤ 0.2.

Take VRGF: the “one-hybrid fitness for binding NBS DNA” value was ≤ 0.2. With AIKL, the “one-hybrid fitness for binding NBS DNA” value was ≤ 0.2. As for FPNF, the figure is ≤ 0.2; as for HIPS, ≤ 0.2; as for NLNK, ≤ 0.2. FVRC: the “one-hybrid fitness for binding NBS DNA” value was ≤ 0.2. As for NCNS, the figure is ≤ 0.2; as for HYHY, ≤ 0.2; as for PWRD, ≤ 0.2.

Take NFCN: the “one-hybrid fitness for binding NBS DNA” value is ≤ 0.2. As for RRNH, the figure is 0.63; as for DVAF, ≤ 0.2; as for LQEQ, ≤ 0.2. As for KRFT, the figure is 0.565; as for VNKT, ≤ 0.2. Then AMFS, with ≤ 0.2; and GEND, with ≤ 0.2; and HHDA, with ≤ 0.2. On to RVLA, for which the “one-hybrid fitness for binding NBS DNA” value is ≤ 0.2. Then ICSG, with ≤ 0.2; and HQMY, with ≤ 0.2; and CARV, with ≤ 0.2. Regarding YAHR, the “one-hybrid fitness for binding NBS DNA” value is ≤ 0.2. As for GKMV, the figure is ≤ 0.2; as for QNGR, ≤ 0.2; as for CILS, ≤ 0.2.

Take QDVV: the “one-hybrid fitness for binding NBS DNA” value was ≤ 0.2.

With PPDG, the “one-hybrid fitness for binding NBS DNA” value was ≤ 0.2. Then YTHG, with ≤ 0.2; and TTQI, with ≤ 0.2; and RILL, with ≤ 0.2. Then IRKM, with ≤ 0.2; and GWPT, with ≤ 0.2; and KPNH, with ≤ 0.2.

With AECT, the “one-hybrid fitness for binding NBS DNA” value is ≤ 0.2.

Take LYDT: the “one-hybrid fitness for binding NBS DNA” value was ≤ 0.2. Then NGWW, with ≤ 0.2; and SGNV, with ≤ 0.2; and RHLM, with ≤ 0.2. Regarding LTES, the “one-hybrid fitness for binding NBS DNA” value is ≤ 0.2. As for PDNR, the figure is ≤ 0.2; as for YATR, ≤ 0.2; as for PSSD, ≤ 0.2. Then ACGT, with ≤ 0.2. As for ALVG, the figure is ≤ 0.2; as for AVIC, ≤ 0.2; as for TQES, ≤ 0.2.

For the variant QETT, the “one-hybrid fitness for binding NBS DNA” value is ≤ 0.2. Then PWGP, with ≤ 0.2; and RCQV, with ≤ 0.2. Then TPHN, with ≤ 0.2. Take KAQV: the “one-hybrid fitness for binding NBS DNA” value is ≤ 0.2. With LTPM, the “one-hybrid fitness for binding NBS DNA” value is ≤ 0.2. Then RAII, with ≤ 0.2. Then LSFN, with ≤ 0.2; and CHRA, with ≤ 0.2; and SQMR, with ≤ 0.2. As for PKQM, the figure is ≤ 0.2; as for QTQN, ≤ 0.2. Consider AKNT, for which the “one-hybrid fitness for binding NBS DNA” value was ≤ 0.2.

Take VGTL: the “one-hybrid fitness for binding NBS DNA” value was ≤ 0.2. Then DPIR, with ≤ 0.2. Then NQMR, with ≤ 0.2. As for HFYR, the figure is ≤ 0.2; as for PRLE, ≤ 0.2. On to FSYV, for which the “one-hybrid fitness for binding NBS DNA” value is ≤ 0.2.

For the variant KWLT, the “one-hybrid fitness for binding NBS DNA” value is ≤ 0.2. As for SQGS, the figure is ≤ 0.2; as for WVVG, ≤ 0.2. Take GTAE: the “one-hybrid fitness for binding NBS DNA” value is ≤ 0.2. As for ITCD, the figure is ≤ 0.2; as for NCCS, ≤ 0.2; as for RMVV, ≤ 0.2. Then ELVG, with ≤ 0.2; and KLKQ, with ≤ 0.2. As to QHAP, the “one-hybrid fitness for binding NBS DNA” value was ≤ 0.2. As for INKS, the figure is ≤ 0.2; as for SRAN, ≤ 0.2; as for AKFS, ≤ 0.2. As for LFDP, the figure is ≤ 0.2. Take RFRG: the “one-hybrid fitness for binding NBS DNA” value was ≤ 0.2. In the case of NTNC, the “one-hybrid fitness for binding NBS DNA” value was ≤ 0.2.

Consider STKP, for which the “one-hybrid fitness for binding NBS DNA” value was ≤ 0.2. As for FRGV, the figure is ≤ 0.2. As for KNMR, the figure is ≤ 0.2; as for QTWQ, ≤ 0.2.

Take YKNG: the “one-hybrid fitness for binding NBS DNA” value was ≤ 0.2.

Consider FSLL, for which the “one-hybrid fitness for binding NBS DNA” value is ≤ 0.2. As for DDQG, the figure is ≤ 0.2; as for SMDE, ≤ 0.2. As for PQHI, the figure is ≤ 0.2; as for TANS, ≤ 0.2; as for MVAN, ≤ 0.2.

For the variant LIVR, the “one-hybrid fitness for binding NBS DNA” value is ≤ 0.2. As for ANYV, the figure is ≤ 0.2; as for SHQF, ≤ 0.2. On to ANTI, for which the “one-hybrid fitness for binding NBS DNA” value was ≤ 0.2. As for QGTW, the figure is ≤ 0.2; as for QHCE, ≤ 0.2. Then DCGC, with ≤ 0.2. With QNHI, the “one-hybrid fitness for binding NBS DNA” value is ≤ 0.2. Turning to TCFT, the “one-hybrid fitness for binding NBS DNA” value was ≤ 0.2. Then CHLV, with ≤ 0.2. As to NGQY, the “one-hybrid fitness for binding NBS DNA” value is ≤ 0.2. Turning to PTIN, the “one-hybrid fitness for binding NBS DNA” value was ≤ 0.2. As for LMLE, the figure is ≤ 0.2. Then VSGC, with ≤ 0.2; and PWED, with ≤ 0.2. For VVRC, the “one-hybrid fitness for binding NBS DNA” value was ≤ 0.2.

On to RDWC, for which the “one-hybrid fitness for binding NBS DNA” value is ≤ 0.2. Then NLLR, with ≤ 0.2; and QMAY, with ≤ 0.2; and GGNQ, with ≤ 0.2. As for VAAA, the figure is ≤ 0.2. With DNER, the “one-hybrid fitness for binding NBS DNA” value is ≤ 0.2. As for PDAT, the figure is ≤ 0.2; as for AYSL, ≤ 0.2. Then PMYY, with ≤ 0.2.

Take GQHS: the “one-hybrid fitness for binding NBS DNA” value is ≤ 0.2. As for LLNR, the figure is ≤ 0.2; as for PDSC, ≤ 0.2. As for ASRS, the figure is ≤ 0.2; as for ENHE, ≤ 0.2. Then SKDR, with ≤ 0.2; and YTTA, with ≤ 0.2; and IAMA, with ≤ 0.2. For CDSG, the “one-hybrid fitness for binding NBS DNA” value was ≤ 0.2. As for GCEG, the figure is ≤ 0.2. As for VCNT, the figure is ≤ 0.2. As for SPQL, the figure is ≤ 0.2; as for FKND, ≤ 0.2. With PMPT, the “one-hybrid fitness for binding NBS DNA” value is ≤ 0.2.

Turning to QTGA, the “one-hybrid fitness for binding NBS DNA” value was found to be 0.466. As for RAHR, the figure is 0.487; as for RQGP, ≤ 0.2; as for HYVM, ≤ 0.2. As for THWY, the figure is ≤ 0.2; as for QGGV, ≤ 0.2. Consider RLED, for which the “one-hybrid fitness for binding NBS DNA” value is ≤ 0.2.

In the case of ENIC, the “one-hybrid fitness for binding NBS DNA” value was ≤ 0.2.

With RNRL, the “one-hybrid fitness for binding NBS DNA” value is ≤ 0.2.

On to DTHR, for which the “one-hybrid fitness for binding NBS DNA” value was ≤ 0.2. Take GFIG: the “one-hybrid fitness for binding NBS DNA” value was ≤ 0.2. Then NSKC, with ≤ 0.2; and HCTC, with ≤ 0.2. Take SVPQ: the “one-hybrid fitness for binding NBS DNA” value was ≤ 0.2. Then RVMA, with ≤ 0.2; and RGQH, with ≤ 0.2. In the case of LIAV, the “one-hybrid fitness for binding NBS DNA” value was ≤ 0.2. Then LYMY, with ≤ 0.2.

LNLH: the “one-hybrid fitness for binding NBS DNA” value was ≤ 0.2. VWST: the “one-hybrid fitness for binding NBS DNA” value was ≤ 0.2.
